# Among all 94,000 compounds or so, about 6,200 (6.6%) were called active. Inconclusive means that the source gave no clear call. Such entries were picked first, then a sample of the others. The call rests on the fitted dose curve; in most records, active means well fitted inhibition curve with a large enough effect; inconclusive means small, poorly fitted or top-dose-only effect; inactive means flat fitted curve, though single readings scatter. Potencies beside an inconclusive call are fits to weak or partial responses and may not hold up.
# Experiment: Cytotoxic Profiling in HEK 293 Cell Line of Diverse Libraries Using Quantitative High-Throughput Screening; further: nearly all actives have a fitted effect of over 60% in size
# Settings: HEK 293 viability, ATP luminescence (CellTiter-Glo), 48-72 h; activity change, negative = cytotoxicity: at 115 µM (top of the series) unless noted; series mostly up to 115 µM
# Outline: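 Cells seeded first (HEK 293, 250 cells/well), then compound added by pintool. Incubation ran 48 or 72 hr at 37 degree Celsius. CellTiter-Glo was added and luminescence imaged after 10 min at room temperature.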
# On the % scale 0 is the no-effect control and ±100 the full control effect; potency means the concentration at half of the fitted maximal effect; tags describe the fitted curve by direction and shape.
SMILES,"activity change, negative = cytotoxicity",Potency,outcome
CNC(=O)N1CCC(C2CCN(Cc3cccc(OC)c3OC)C2)CC1 (stereo not drawn),inactive: -9.11%,,
Cc1cc(C)cc(NC(=O)c2ccc3c(c2)N(C)C2CCCCN2C3=O)c1 (stereo not drawn),,"inconclusive: 56.2 µM [inhibitor, partial curve, poor fit]",
Cc1cc(C(=O)N2CCC3(CC2)CC(CC(=O)NCc2ccccc2)CCO3)n[nH]1 (stereo not drawn),inactive: 13%,,
O=C(CCc1cccc(F)c1)N1CCN(Cc2ccccc2)CC(O)C1 (stereo not drawn),inactive: -23%,,
O=C1NCCCCCCN(S(=O)(=O)c2cccc3cccnc23)[C@H]2CCCC[C@@H]12,,"inconclusive: 100 µM [inhibitor, partial curve, poor fit]",
O=C(NC1CCCN(c2cc(-c3ccc(F)cc3)[nH]n2)C1)c1ccc(F)cc1F (stereo not drawn),,"inconclusive: 56.2 µM [inhibitor, partial curve, poor fit]",
CCN1CCCC2(Cc3ccccc3CN([S+](=O)([O-])c3ccccc3)C2)C1 (stereo not drawn),inactive: -17%,,
COc1ccc(C(=O)N2C[C@H](c3nc(-c4ccncc4)no3)[C@@H](C)C2)cc1OC,,"inconclusive: 31.6 µM [inhibitor, partial curve, poor fit]",
COc1ccccc1CN1CCNc2cnc(-c3ccccc3)cc2C1,,active: 79.4 µM,
Cn1ccnc1CNC(=O)CC(c1cccc(O)c1)c1ccccc1Cl (stereo not drawn),inactive: 1.43%,,
CO[C@@](C(=O)N1CCOC[C@H]1c1ncc(-c2ccccc2)[nH]1)(c1ccccc1)C(F)(F)F,,"inconclusive: 50.1 µM [inhibitor, partial curve, poor fit]",
CC(NC(=O)c1cc(-c2ccccc2C(F)(F)F)nc2c1cnn2C)C(C)(C)C (stereo not drawn),,active: 44.7 µM,
CCC[C@H]1CN(Cc2ccccc2C#N)C[C@@H]1NS(C)(=O)=O,,,inactive
COc1cccc(CNC(=O)Cn2ccn3nc4c(c3c2=O)CCCCC4)c1OC,,"inconclusive: 63.1 µM [inhibitor, partial curve, poor fit]",
COc1cccc(-c2c(C(=O)NCCc3ccccc3F)nc3sccn23)c1,,"inconclusive: 50.1 µM [inhibitor, partial curve, poor fit]",
CCOC(=O)C1CCCN(C(=O)c2cn3cc(-c4cccc(OC)c4)sc3n2)C1 (stereo not drawn),,"inconclusive: 50.1 µM [inhibitor, partial curve, poor fit]",
CCC(C)N1CCN(C(=O)CCc2ccc3c(c2)CN(C(=O)C2CC2)CCO3)CC1 (stereo not drawn),,"inconclusive: 89.1 µM [inhibitor, single point]",
CCc1noc(-c2cn(C3CCCN(C(=O)c4cc(Cl)ccc4F)C3)nn2)n1 (stereo not drawn),,"inconclusive: 79.4 µM [inhibitor, single point]",
COC[C@H]1C[C@@H](NC(=O)c2ccc(Cl)cc2)[C@H](O)[C@@H]1O,inactive: 1.26% [at 172 µM],,
Cc1nc(-c2ccc(OC3CCN(C(=O)c4[nH]nc5c4COc4ccccc4-5)C3)cc2)no1 (stereo not drawn),,"inconclusive: 35.5 µM [inhibitor, full curve]",
C=CCOc1cccc(-c2nc(C(=O)Nc3ccc(F)cc3)cs2)c1,,"inconclusive: 100 µM [inhibitor, single point]",
CC(O)CN1CCC(=O)N(CC(C)(C)C)Cc2cc3c(cc21)OCO3 (stereo not drawn),inactive: -20.3%,,

SMILES,"activity change, negative = cytotoxicity",Potency,outcome
C=CCNC(=O)N[C@H]1CO[C@H]2[C@@H]1OC[C@@H]2Nc1nccc(C(C)(C)C)n1,,"inconclusive: 126 µM [inhibitor, single point]",
O=C1[C@H]2CN(Cc3ccc(F)c(F)c3)C[C@H]2C(=O)N1Cc1ccc2c(c1)OCO2,inactive: -29.5%,,
COc1ccc(-c2ccc3ncc(Nc4ccc(C(F)(F)F)cc4)n3n2)cn1,,"inconclusive: 100 µM [inhibitor, partial curve, poor fit]",
COCC1CN(Cc2cc(Br)ccc2OC)CC12CCNCC2 (stereo not drawn),,"inconclusive: 50.1 µM [inhibitor, partial curve, poor fit]",
CN(c1ccccc1)c1cc(=O)c2ccnc(NCC3CCOCC3)c2o1,,"inconclusive: 35.5 µM [inhibitor, full curve]",
CC(C)(C)COC(=O)N1C[C@@H](CO)[C@@H]2Oc3c(F)cccc3[C@@H]21,,"inconclusive: 56.2 µM [inhibitor, partial curve, poor fit]",
O=C(CCc1cc2n(n1)CCNC2)NCc1nc2ccc(Cl)cc2[nH]1,inactive: -13.3%,,
O=C1N(Cc2ccccc2)c2ccccc2C12CCN(Cc1cncs1)C2 (stereo not drawn),,"inconclusive: 50.1 µM [inhibitor, partial curve, poor fit]",
O=C(Cn1nc2c(cc1=O)CCCC2)N1CCC(c2noc3cc(F)ccc23)CC1,,"inconclusive: 89.1 µM [inhibitor, single point]",
COc1ccc(C(=O)NC(C)c2nncn2C)cc1OC1CCN(C(C)=O)CC1 (stereo not drawn),,"inconclusive: 100 µM [inhibitor, single point]",
O=C(C[C@@H]1CCNC[C@@H]1Cc1cc(-c2ccc(F)cc2)on1)NCc1cccnc1,inactive: -2.18% [at 172 µM],,
O=C1NCc2ccccc2CC12CCN(Cc1ccncc1)CC2,,,inactive
COc1ccc(Cn2c(=O)c(C(=O)N3CCN(C(=O)c4ccccc4)CC3)nc3cccnc32)cc1,inactive: -3.93%,,
O=C(O)C1=NOC2CN(Cc3ccc(F)cc3)CC12 (stereo not drawn),inactive: 0.443% [at 172 µM],,
O=C(c1ccco1)N1CCC(n2cc(-c3nc(-c4ccccc4)no3)nn2)CC1,,"inconclusive: 50.1 µM [inhibitor, partial curve, poor fit]",
O=C1CC(c2ccccc2)N(C(=O)C2CC2)CCCN(C(=O)Cc2cccnc2)CCN1 (stereo not drawn),,,inactive
COCCCNc1cc(-c2ccccc2OC)nc2c(C)noc12,,"inconclusive: 100 µM [inhibitor, partial curve]",
COc1ccccc1CN1CCCC(c2nn(-c3ccc(Cl)cc3)c(=O)[nH]2)C1 (stereo not drawn),,"inconclusive: 50.1 µM [inhibitor, partial curve, poor fit]",
COc1ccc2c(c1)CCN=C2C[C@H]1CN(C(=O)C(=O)O)CC[C@H]1CC(=O)O,inactive: 0.0729% [at 172 µM],,
O=C(Nc1ccc2c(N3CCOCC3)ncnc2c1)c1cccc(Br)c1,,active: 63.1 µM,
C[C@H](C(=O)N1CCSCC1)C1CC[C@@]2(C)Cc3sc(Nc4c(Cl)cccc4Cl)nc3[C@@H](C)[C@@H]2[C@H]1O (stereo partly drawn),,"inconclusive: 56.2 µM [inhibitor, partial curve, poor fit]",

# From PubChem BioAssay AID1345083 (National Center for Advancing Translational Sciences (NCATS), 2018)
